From the supplement of paper PMC3334620
In all, about 33,000 sequences were measured (“E-score (-0.5 to 0.5)”: median about -0.036, highest 2% from about 0.37 on). This is one part of the list.

Target: T1, Yer064c (UniProt P40041)
T1 sequence: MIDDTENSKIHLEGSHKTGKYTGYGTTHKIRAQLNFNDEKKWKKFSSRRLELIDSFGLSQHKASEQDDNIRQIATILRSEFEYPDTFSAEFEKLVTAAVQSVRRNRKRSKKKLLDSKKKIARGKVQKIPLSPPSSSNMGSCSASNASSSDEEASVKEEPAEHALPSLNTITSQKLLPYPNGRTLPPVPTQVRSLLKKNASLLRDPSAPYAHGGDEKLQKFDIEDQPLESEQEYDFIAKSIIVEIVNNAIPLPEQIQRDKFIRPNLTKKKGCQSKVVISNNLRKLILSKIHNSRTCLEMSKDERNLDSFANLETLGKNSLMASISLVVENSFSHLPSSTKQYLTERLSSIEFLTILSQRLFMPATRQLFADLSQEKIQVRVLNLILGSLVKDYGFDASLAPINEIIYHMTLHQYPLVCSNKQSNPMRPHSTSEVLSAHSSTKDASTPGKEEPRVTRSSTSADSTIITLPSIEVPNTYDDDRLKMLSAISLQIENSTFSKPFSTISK
Assay: PBM E-score (8-mer binding enrichment) (E-score (-0.5 to 0.5)); higher = stronger / more preferred TF binding; most listed sequences are background and not binding sites
Conditions: protein concentration: 200 nM; construct: GST-full length
In short: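 Masliner-normalised scans of fluorescent anti-GST signal were the basis for scoring. That signal came from GST-tagged yeast transcription factors applied at about 100-200 nM to double-stranded universal all-10-mer Agilent arrays on fresh or once-stripped slides. Each ungapped eight-base word, pooled with its reverse complement, received an E-score from the Universal PBM Analysis Suite.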

Sequence	PBM E-score
AACCGTAA	-0.0266
GTCTGAAA	-0.00599
AAGCCAGG	-0.134
ATCCCCGC	-0.112
GATTATAC	0.239
ATAGGTGA	0.122
TGCTGCAA	-0.0967
CCGACCAG	-0.261
CTACTCGC	0.0327
CAGAGCAA	-0.0906
CCGGAACC	-0.21
CTGGTGCA	-0.18
TGGCGGAA	-0.313
TCCCCCAA	-0.107
CTGTGATC	0.0336
GGATTTAA	0.0151
ACCGGAAA	-0.195
AAATCTAT	-0.0116
GCCCATAC	-0.0645
CTTTAATC	0.29
GACTGTCA	0.286
CAAGGGAA	-0.0578
TATAGCAA	-0.174
CAGAAGTC	0.293
GTCTTAAA	0.166

Sequence	PBM E-score
AGTGAACC	0.0366
CACGAAAG	-0.148
ACCGCGCC	-0.26
CATACGTC	-0.0606
CGCCCTAA	-0.114
ATAATCTA	0.14
GGCGTCCC	-0.329
ATAAGACC	-0.0423
CAGCCAGC	-0.181
ACCGGCCT	-0.188
AACCTTGA	0.0951
CGCCGGAA	-0.145
GACACCAA	-0.00346
CTGTCCCC	-0.201
CTTACTTC	0.0114
CGAAAGTA	0.0513
GGTCTGAC	0.235
CTGTCCAA	-0.239
GGGCGCCA	-0.326
CCACCCTA	-0.0978
GACTCGGA	0.351
CCATTTCG	-0.0764
CCGATTAG	-0.12
AACATAAC	-0.106
CCATTTAG	-0.0338

Sequence	PBM E-score
ATCCTGGG	-0.0196
TCTTGTAA	0.113
CACCTGGA	-0.106
CTCGGTTA	0.0632
ACGGAAGG	-0.28
CTATCAAA	0.00494
TCAAGCCA	0.17
CCCCGAGC	-0.0415
CTCCGGGC	-0.116
AGATGCTG	-0.141
GAAAGGTA	-0.0333
GCGTGCCC	-0.242
CCTACGAG	0.0278
CCTAGAGA	0.0432
AAAAACCC	-0.204
CTAGTGTA	0.0423
GCAGCTGC	-0.371
TCGGCGCA	-0.323
GATGCTCC	-0.345
GTTTCATA	-0.116
AACTTCGG	-0.114
CGCAACGA	0.0597
ATTTCAGA	0.0892
TTCGGCAA	0.058
CAGATGCG	-0.0493

Sequence	PBM E-score
AAACTAGG	-0.0737
CTCAAAAA	0.113
GGTCCCCA	-0.256
GTTGAACA	-0.183
CGTTCCAA	-0.0629
TAAGAAAA	0.0433
GCCCGTAC	-0.306
CCACAAAC	0.00979
AGCCCTCA	-0.239
GGTCTGCA	-0.173
CGCTACGC	-0.323
ACGCTCAT	-0.139
ATTTCGGG	-0.155
AAAGGGAC	-0.00724
ACTGGTAT	-0.142
ACTCGACA	0.148
CTTTATAA	0.0334
CGGCGTAG	-0.104
ACATTTAC	-0.0584
ACAATTGC	-0.134
CTACGATC	-0.0886
ACCGGGTC	-0.107
CGTTTTTA	0.0687
GGGCATAC	-0.0646
CTAAAGGC	-0.0256

Sequence	PBM E-score
CCTAGTGA	0.0002
ATTCAGAC	0.158
CTCTGTCA	-0.0955
CCCTGCGA	0.0409
CGTCGCAA	-0.0904
CGTCGGCA	-0.123
CGGCGTGA	0.164
AGGGTGCA	-0.218
CCTACCAA	-0.0734
AACTTGAA	-0.0305
CTTTCTGA	0.0307
AAATCACC	0.328
AATCCGCT	-0.154
GTCAAAGA	0.202
GCACAGGA	-0.0012
GGATATAC	-0.0194
ACAGCTCA	-0.0698
TACGTAGA	0.137
ATAGACAG	0.104
CATTCCGC	-0.178
CTCGGTTC	-0.136
AGAGTGCT	-0.0672
AAGTATTC	-0.0935
AACGCCTT	-0.207
ATTTGGCC	-0.0365

Sequence	PBM E-score
CAGCTCAA	-0.00537
CGGCGTTA	-0.245
ATCATAAT	0.223
ATTGAGCC	0.221
CCTCCTAA	0.0396
CAGTTTGC	-0.0801
CATAAAGG	0.0681
CAGTCTCC	0.211
GATAGACC	-0.01
ATAAAAAC	0.164
CACCAGGC	-0.109
CACCTAAG	0.112
TATAAGGA	0.108
TAAGTAGA	0.077
CCCTTCAG	-0.0755
ATCTCAGA	-0.113
CACCGATA	-0.0639
AGTTATGG	0.005
ATGATGCC	-0.0236
ATTCACGC	0.132
GAAGCCCA	-0.134
GATGTACC	-0.126
AACCGGGC	-0.143
GACTACGA	0.413
AGCTGTAA	0.0835

Sequence	PBM E-score
CCGGTGCA	-0.339
TATGGTCA	0.157
CCTTTGAG	0.0117
CTCATATC	0.188
CCGGCAGG	-0.176
AGTTTAAA	0.104
ATGAGGGA	-0.0238
AGATGTTG	-0.179
AGCTAGCA	-0.123
ACAGTTAT	-0.0189
GCAGAAGC	-0.307
GACGCTCA	-0.0271
AGGTCGGG	-0.125
GACCCCAA	-0.18
CCATGTGC	-0.0296
AATGCAGT	0.0561
ACTGGATG	-0.0534
AGCCAGGG	0.0643
AGCCTCTC	-0.358
CAGCAGCG	-0.0778
CCTGCGAC	0.00067
CCACACCG	-0.0031
